From paper PMC7949147
Where a chain is given by its changes, count along the chain named. Results are given in words; binding and its absence hold for the method and conditions named. Binding seen in cells or lysates may run through a third protein. Some results given as binding are weak or reduced against the parent protein; the word gives no strength. Tags and fused reporters may be left off the sequences shown.

By UniProt entry, the sequences of proteins in these tests, tags left out.
UniProt Q8VI36: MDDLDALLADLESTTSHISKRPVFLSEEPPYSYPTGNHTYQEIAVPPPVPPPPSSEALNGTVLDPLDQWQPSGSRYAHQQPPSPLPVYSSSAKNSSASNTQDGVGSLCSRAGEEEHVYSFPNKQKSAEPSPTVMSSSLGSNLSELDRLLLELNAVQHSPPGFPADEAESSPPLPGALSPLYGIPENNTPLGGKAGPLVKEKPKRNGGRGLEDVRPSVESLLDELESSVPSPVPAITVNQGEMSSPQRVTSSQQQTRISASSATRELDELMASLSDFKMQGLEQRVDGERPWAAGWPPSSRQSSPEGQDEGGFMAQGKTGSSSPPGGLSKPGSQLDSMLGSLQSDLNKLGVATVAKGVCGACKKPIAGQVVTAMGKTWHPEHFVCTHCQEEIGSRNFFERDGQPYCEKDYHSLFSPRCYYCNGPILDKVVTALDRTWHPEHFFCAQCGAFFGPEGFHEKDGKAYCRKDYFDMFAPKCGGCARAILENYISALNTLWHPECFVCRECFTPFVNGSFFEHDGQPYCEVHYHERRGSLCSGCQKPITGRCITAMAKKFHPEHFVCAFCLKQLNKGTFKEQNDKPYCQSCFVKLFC

T1: FLAG-tagged ILK K220M mutant (UniProt O55222)
T1 sequence: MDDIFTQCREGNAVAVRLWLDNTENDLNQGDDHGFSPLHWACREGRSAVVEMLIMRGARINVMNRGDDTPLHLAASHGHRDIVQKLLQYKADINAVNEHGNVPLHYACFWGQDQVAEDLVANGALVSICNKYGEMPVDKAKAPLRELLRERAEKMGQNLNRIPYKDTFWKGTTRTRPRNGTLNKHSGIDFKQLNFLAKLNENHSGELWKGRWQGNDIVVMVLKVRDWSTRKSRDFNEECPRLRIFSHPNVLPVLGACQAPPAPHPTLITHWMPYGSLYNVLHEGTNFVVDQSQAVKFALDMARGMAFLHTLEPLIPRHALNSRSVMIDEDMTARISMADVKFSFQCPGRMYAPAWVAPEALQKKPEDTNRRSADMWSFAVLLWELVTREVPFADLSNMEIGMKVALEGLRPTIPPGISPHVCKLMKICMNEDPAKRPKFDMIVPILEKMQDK

T2: FLAG-tagged ILK V386G/T387G (paxillin-binding site, PBS) mutant (UniProt O55222)
T2 sequence: T1 sequence with M220K, V386G, T387G

T3: FLAG-tagged full-length integrin-linked kinase (ILK), wild type (UniProt O55222)
T3 sequence: T1 sequence with M220K

B1: α-parvin (protein, UniProt Q9EPC1 1-372)
chain: MATSPQKSPLVPKSPTPKSPPSRKKDDSFLGKLGGTLARRKKAKEVSEFQEEGMNAINLPLSPISFELDPEDTLLEENEVRTMVDPNSRNDPKLQELMKVLIDWINDVLVGERIIVKDLAEDLYDGQVLQKLFEKLESEKLNVAEVTQSEIAQKQKLQTVLEKINETLKLPPRSIKWNVDSVHAKNLVAILHLLVALSQYFRAPIRLPDHVSIQVVVVQKREGILQSRQIQEEITGNTEALSGRHERDAFDTLFDHAPDKLNVVKKTLITFVNKHLNKLNLEVTELETQFADGVYLVLLMGLLEGYFVPLHSFFLTPDSFEQKVLNVSFAFELMQDGGLEKPKPRPEDIVNCDLKSTLRVLYNLFTKYRNVE
B2: β-parvin (protein, UniProt Q9ES46 1-365)
chain: MSSAPPRSPTPRAPKMKKDESFLGKLGGTLARKKKTREVTDLQEEGKSAINSPMAPALVDIHPEDTQLEENEERTMIDPTSREDPKFKELVKVLLDWINDVLAEERIIVKQLEEDLYDGQVLQKLLEKLAHCKLNVAEVTQSEIGQKQKLQTVLEAVQDLLRPHGWPLRWNVDSIHGKNLVAILHLLVSLAMHFRAPIHLPEHVTVQVVVVRKREGLLHSSHISEELTTTTEIMMGRFERDAFDTLFDHAPDKLNLVKKSLITFVNKHLNKLNLEVTDLETQFADGVYLVLLLGLLEDYFVPLHNFYLTPDSFDQKVHNVAFAFELMLDGGLKKPKARPEDVVNLDLKSTLRVLYTLFTKYKDVE

Columns and labels:
Test in all cases: co-IP; anti-FLAG M2 resin, 12 h immunoprecipitation of FLAG-ILK from lysates of CD cells (starved overnight, plated 4 h on FN-coated dishes); lysis in 10 mM Tris-HCl, 50 mM NaCl, 10% glycerol, 1% Igepal C630, pH 7.6; 1.0 mg total protein; western blot
[1] = target: T1, FLAG-tagged ILK K220M mutant
[2] = target: T2, FLAG-tagged ILK V386G/T387G (paxillin-binding site, PBS) mutant
[3] = target: T3, FLAG-tagged full-length integrin-linked kinase (ILK), wild type

Molecule | binding [1] | binding [2] | binding [3]
paxillin (from UniProt Q8VI36 1-591) | no binding | no binding | binds
B1 | no binding | no binding | binds
B2 | no binding | no binding | binds
